# Laboratory results published in the supplement of paper PMC11369174, “Proteome-scale characterisation of motif-based interactome rewiring by disease mutations” (Molecular Systems Biology, 2024).
# The list shows a part of the results. Single values of this set are uncertain.
# Molecular target: T1, CSKP_Pkinase__O14936_1_340
# T1 chain: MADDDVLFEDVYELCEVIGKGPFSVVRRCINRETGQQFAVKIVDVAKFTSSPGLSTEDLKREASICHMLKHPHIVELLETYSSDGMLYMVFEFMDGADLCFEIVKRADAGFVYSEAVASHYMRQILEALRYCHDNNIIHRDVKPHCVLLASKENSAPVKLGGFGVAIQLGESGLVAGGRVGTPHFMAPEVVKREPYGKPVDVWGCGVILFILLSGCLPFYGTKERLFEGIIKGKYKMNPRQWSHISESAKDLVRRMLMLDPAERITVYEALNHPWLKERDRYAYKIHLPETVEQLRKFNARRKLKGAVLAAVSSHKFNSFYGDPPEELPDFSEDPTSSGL
# Assay: mutation enrichment score (mutant vs wild-type peptide binding to bait); baits are purified protein domains named by gene / domain / UniProt id / residues; peptides come from disordered regions of human proteins; higher = mutation enhances binding relative to wild type
# Conditions: number of wild-type / mutant comparisons summed (bounds the score): 6; paper call: no_effect; wild-type window: …
row,Binder,mutation enrichment score
1,ADGAALEHSEEDGSIYEMADNPDIWVRSRPCARDAHRKEIC [D1216N D1216N],1

# Same assay, conditions: number of wild-type / mutant comparisons summed (bounds the score): 12; paper call: enhanced; wild-type window: …
row,Binder,mutation enrichment score
1,YCDEEENFYQQQQQSELQPPVPSEDIWKKFELLPTPPLSPS [A44V A44V],6
2,TDHGAEIVYKSPVVSGDTSPWHLSNVSSTGSIDMVDSPQLA [R723W R723W],12
3,QHLDSPNIGVYEGDRVWLKKSPGDQHIAIRPATKTAFSKLQ [F565S F565S],8
4,LVITYGLNAGAFYALSTLLNPMVIWHYPGEEVNAGRIGLTI [R333P R333P],10

# Molecular target: T2, TLN1_PTB__Q9Y490_309_401
# T2 chain: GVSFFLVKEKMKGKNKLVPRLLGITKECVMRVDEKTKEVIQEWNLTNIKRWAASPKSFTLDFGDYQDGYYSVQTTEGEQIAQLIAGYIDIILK
# Assay: as above
# Conditions: number of wild-type / mutant comparisons summed (bounds the score): 12; paper call: no_effect; wild-type window: …
row,Binder,mutation enrichment score
1,LVITYGLNAGAFYALSTLLNPMVIWHYPGEEVNAGRIGLTI [R333P R333P],1.8

# Molecular target: T3, TLN2_PTB__Q9Y4G6_312_417
# T3 chain: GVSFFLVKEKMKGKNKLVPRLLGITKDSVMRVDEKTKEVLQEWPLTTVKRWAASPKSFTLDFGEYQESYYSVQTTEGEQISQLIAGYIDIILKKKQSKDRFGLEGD
# Assay: as above
# Conditions: number of wild-type / mutant comparisons summed (bounds the score): 12; paper call: no_effect; wild-type window: …
row,Binder,mutation enrichment score
1,LVITYGLNAGAFYALSTLLNPMVIWHYPGEEVNAGRIGLTI [R333P R333P],0.26

# Molecular target: T1, CSKP_Pkinase__O14936_1_340
# Assay: as above
# Conditions: number of wild-type / mutant comparisons summed (bounds the score): 12; paper call: no_effect; wild-type window: …
row,Binder,mutation enrichment score
1,QSELQPPAPSEDIWKKFELLSTPPLSPSRRSGLCSPSYVAV [P57S P57S],1.7
2,ELQPPAPSEDIWKKFELLPTAPLSPSRRSGLCSPSYVAVTP [P59A P59A],1.5
3,SELQPPAPSEDIWKKFELLPPPPLSPSRRSGLCSPSYVAVT [T58P T58P],2
4,GAGATHSPPTDLVWKAQNTWVCGNSLRTALINSTGEEVAMR [G521V G521V],5.1
5,AGAGATHSPPTDLVWKAQNTGGCGNSLRTALINSTGEEVAM [W520G W520G],-2
6,LQPCFYPDEDDFYFGGPDSTLPGEDIWKKFELLPTPPLSPS [P44L P44L],2.4
7,VFIFSGTFRKNLDPYEQWSDKEIWKVADEVGLRSVIEQFPG [Q1313K Q1313K],-0.27
8,HSYDVLVAMTIFFNTHNEPVWQLAIFCPHVALQTTICEVLE [R297W R297W],4

# Same assay, conditions: number of wild-type / mutant comparisons summed (bounds the score): 18; paper call: diminished; wild-type window: …
row,Binder,mutation enrichment score
1,AESKTLIYQMAPAVSKTEDVLVRIEDCPINNPRSGRSPTGN [W2658L W2658L],-9

# Molecular target: GABARAPL1_ATG8__Q9H0R8_2_115
# Assay: as above
# Conditions: number of wild-type / mutant comparisons summed (bounds the score): 18; paper call: diminished; wild-type window: …
row,Binder,mutation enrichment score
1,AESKTLIYQMAPAVSKTEDVLVRIEDCPINNPRSGRSPTGN [W2658L W2658L],-7

# Molecular target: T1, CSKP_Pkinase__O14936_1_340
# Assay: as above
# Conditions: number of wild-type / mutant comparisons summed (bounds the score): 18; paper call: no_effect; wild-type window: …
row,Binder,mutation enrichment score
1,YQCWDCQELFPSPELWVAHRTAQHLSATVAEPPVPPPLPPP [K160T K160T],4

# Molecular target: T4, EPHA3_Pkinase__P29320_606_947
# T4 chain: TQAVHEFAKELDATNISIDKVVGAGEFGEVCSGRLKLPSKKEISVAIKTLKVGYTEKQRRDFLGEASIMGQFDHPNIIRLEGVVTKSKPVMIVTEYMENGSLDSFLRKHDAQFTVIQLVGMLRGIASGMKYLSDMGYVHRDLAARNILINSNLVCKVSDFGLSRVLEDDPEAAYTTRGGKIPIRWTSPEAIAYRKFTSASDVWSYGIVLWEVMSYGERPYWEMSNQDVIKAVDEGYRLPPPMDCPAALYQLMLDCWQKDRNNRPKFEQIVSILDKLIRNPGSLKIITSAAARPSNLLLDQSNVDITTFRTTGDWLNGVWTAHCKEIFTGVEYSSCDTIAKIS
# Assay: as above
# Conditions: number of wild-type / mutant comparisons summed (bounds the score): 6; paper call: no_effect; wild-type window: …
row,Binder,mutation enrichment score
1,YQCWDCQELFPSPELWVAHRTAQHLSATVAEPPVPPPLPPP [K160T K160T],-1.5

# Molecular target: T5, EPHB2_Pkinase__P29323_604_898
# T5 chain: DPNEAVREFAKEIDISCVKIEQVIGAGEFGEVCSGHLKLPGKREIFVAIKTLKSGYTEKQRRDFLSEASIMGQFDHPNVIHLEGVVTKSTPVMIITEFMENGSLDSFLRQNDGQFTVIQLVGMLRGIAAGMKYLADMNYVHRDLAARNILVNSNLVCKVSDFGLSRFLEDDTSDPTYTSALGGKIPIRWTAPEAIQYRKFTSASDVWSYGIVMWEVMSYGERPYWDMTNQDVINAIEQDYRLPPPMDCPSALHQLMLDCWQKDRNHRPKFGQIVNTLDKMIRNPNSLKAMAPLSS
# Assay: as above
# Conditions: number of wild-type / mutant comparisons summed (bounds the score): 6; paper call: no_effect; wild-type window: …
row,Binder,mutation enrichment score
1,YQCWDCQELFPSPELWVAHRTAQHLSATVAEPPVPPPLPPP [K160T K160T],-0.23

# Molecular target: REPS1___Q96D71_226_314
# Assay: as above
# Conditions: number of wild-type / mutant comparisons summed (bounds the score): 6; paper call: no_effect; wild-type window: …
row,Binder,mutation enrichment score
1,YQCWDCQELFPSPELWVAHRTAQHLSATVAEPPVPPPLPPP [K160T K160T],-0.021

# Molecular target: DMD_WW-EF__P11532_3055_3088
# Assay: as above
# Conditions: number of wild-type / mutant comparisons summed (bounds the score): 6; paper call: no_effect; wild-type window: …
row,Binder,mutation enrichment score
1,YTPPVTSGMSLGMSATTHYHIYLPPPYPGSSQSQSGPFQTS [T420I T420I],-4
2,DRGASLGPPPYLRTEFHQHQQQHQHTHQHTHQHTFTPFPHA [H529Q H529Q],3.8
3,VNPEAIDTTCNSVDLTWQPPHHDGGSKILGYIVEYQKVGDE [R18064H R18064H],-1
4,RVGFGSGQPPPYDHLFEVALLKTAHHFVIRKTEELLKKAKG [P613L P613L],-3
5,LSMPSTSHCTPPPPYPTDCSTVSFLARLGCSSCLDYFTTQG [I549T I549T],-2.4

# Molecular target: NEDD4_WW_2_P46934_765_803
# Assay: as above
# Conditions: number of wild-type / mutant comparisons summed (bounds the score): 12; paper call: diminished; wild-type window: …
# Sequence of NEDD4_WW_2_P46934_765_803 (chain, as listed by the source): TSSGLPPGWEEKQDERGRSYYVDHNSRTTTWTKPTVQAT
row,Binder,mutation enrichment score
1,YTPPVTSGMSLGMSATTHYHIYLPPPYPGSSQSQSGPFQTS [T420I T420I],-8

# Molecular target: SMURF2_WW_3_Q9HAU4_298_330
# Assay: as above
# Conditions: number of wild-type / mutant comparisons summed (bounds the score): 6; paper call: no_effect; wild-type window: …
row,Binder,mutation enrichment score
1,YTPPVTSGMSLGMSATTHYHIYLPPPYPGSSQSQSGPFQTS [T420I T420I],-3
2,DRGASLGPPPYLRTEFHQHQQQHQHTHQHTHQHTFTPFPHA [H529Q H529Q],1
3,RVGFGSGQPPPYDHLFEVALLKTAHHFVIRKTEELLKKAKG [P613L P613L],-5.6
4,LSMPSTSHCTPPPPYPTDCSTVSFLARLGCSSCLDYFTTQG [I549T I549T],-1.8

# Molecular target: WWTR1_WW__Q9GZV5_122_160
# Assay: as above
# Conditions: number of wild-type / mutant comparisons summed (bounds the score): 12; paper call: diminished; wild-type window: …
# Sequence of WWTR1_WW__Q9GZV5_122_160 (chain, as listed by the source): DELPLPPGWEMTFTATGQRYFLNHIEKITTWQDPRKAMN
row,Binder,mutation enrichment score
1,YTPPVTSGMSLGMSATTHYHIYLPPPYPGSSQSQSGPFQTS [T420I T420I],-12

# Molecular target: NEDD4_WW_2_P46934_765_803
# Assay: as above
# Conditions: number of wild-type / mutant comparisons summed (bounds the score): 6; paper call: no_effect; wild-type window: …
row,Binder,mutation enrichment score
1,DRGASLGPPPYLRTEFHQHQQQHQHTHQHTHQHTFTPFPHA [H529Q H529Q],-2.9
2,RVGFGSGQPPPYDHLFEVALLKTAHHFVIRKTEELLKKAKG [P613L P613L],0.26
3,LSMPSTSHCTPPPPYPTDCSTVSFLARLGCSSCLDYFTTQG [I549T I549T],-2.4

# Molecular target: WWTR1_WW__Q9GZV5_122_160
# Assay: as above
# Conditions: number of wild-type / mutant comparisons summed (bounds the score): 6; paper call: no_effect; wild-type window: …
row,Binder,mutation enrichment score
1,DRGASLGPPPYLRTEFHQHQQQHQHTHQHTHQHTFTPFPHA [H529Q H529Q],1
2,RVGFGSGQPPPYDHLFEVALLKTAHHFVIRKTEELLKKAKG [P613L P613L],-3.8
3,LSMPSTSHCTPPPPYPTDCSTVSFLARLGCSSCLDYFTTQG [I549T I549T],-1.5
